Consider 42 compounds from ChEMBL document CHEMBL4888484, “Replenishing the malaria drug discovery pipeline: Screening and hit evaluation of the MMV Hit Generation Library 1 (HGL1) against asexual blood stage Plasmodium falciparum ,using a nano luciferase reporter read-out” (2022).

Screen size: about 150,000 compounds; about 540 (0.36%) showed an effect of 50% or more. This is one part of the list.

For this assay, the system named is Plasmodium falciparum. Description: Primary screen in NF54 nanoGlo assay, in single point, at 2uM, 72h; a lower Z score goes with more inhibition. The class given is functional, Erythrocyte. The note with it: timepoint 72 hour.
As for `COc1cc(C[C@H](C)NCc2cc(NC(=O)c3ccccn3)cc(C(=O)N(C)C)c2)ccc1O`, the “% Inhibition” value is on record as -18% and the Z score came out at 3.24.

Consider `CN1CCC2OCCN(c3ncccc3C#N)C2C1` (centres undefined), for which the “% Inhibition” value is recorded as -4% and the Z score came out at 0.73.

`CCn1cc(C(=O)Nc2ccc3c(c2)CNCC3)cn1`: the “% Inhibition” value is -13% and the Z score stood at 2.

For `O=C(COc1ccccc1)N1CCCCC[C@@H]1CN1CCCC1`, the “% Inhibition” value was 1% and the Z score is recorded as -0.2.

On to `CCCn1nnnc1CN1CCN2CCC[C@H]2C1`, for which the “% Inhibition” value stood at 0% and the Z score is listed as -0.04.

In the case of `COC1CCC(NC2CCCN(C(=O)Oc3ccccc3)CC2)C1` (centres undefined), the “% Inhibition” value is -9% and the Z score turned out to be 1.33.

Take `CCOC(=O)CN1CCCC2(C1)OCCO2`: the “% Inhibition” value is reported as -11% and the Z score was found to be 1.29.

For `CCN1CCC(N(C)c2ccc3nnc(C(F)(F)F)n3n2)CC1`, the “% Inhibition” value is listed as -13% and the Z score is 1.74.

On to `COc1ccc2c(c1)c(C(=O)N[C@H]1CCOC(C)(C)C1)cn2C(C)C`, for which the “% Inhibition” value is -11% and the Z score came out at 1.41.

As for `Cc1ccc(O[C@H]2CCCN(S(=O)(=O)c3ccc4oc(=O)[nH]c4c3)C2)nn1`, the “% Inhibition” value is given as -9% and the Z score worked out at 0.99.

As for `CN(C)[C@H]1[C@@H]2CC[C@H]1CN(Cc1ccc3ncccc3c1)C2`, the “% Inhibition” value is given as -2% and the Z score is on record as 0.27.

Turning to `O=C(CN1CC[C@@]2(CCc3ccccc32)C1)Nc1cccnn1`, the “% Inhibition” value was 2% and the Z score was -0.28.

Turning to `COc1ccc(Br)cc1[C@H]1N(c2cc(C)on2)C(=O)[C@@H]2CCCN21`, the “% Inhibition” value was -7% and the Z score is on record as 0.93.

Consider `Nc1cccc(C(=O)NC[C@@H]2CCCN3CCCC[C@H]23)n1`, for which the “% Inhibition” value was -11% and the Z score is recorded as 1.55.

`CCCc1ccc(-c2c(C#N)c(N)nc3c2CNCC3)o1`: the “% Inhibition” value was 4% and the Z score is given as -0.68.

`O=C(c1ccc2oc(=O)[nH]c2c1)N1CCC[C@H]1C(F)(F)F`: the “% Inhibition” value is -4% and the Z score came out at 0.52.

`COc1cccc2c1OC1(C(=O)O)CC2Nc2[nH]nc(-c3ccccc3)c21` (centres undefined): the “% Inhibition” value was -6% and the Z score is listed as 0.92.

On to `Cn1cc(CCN2CCN(c3ccccc3Cl)CC2)cn1` [ENPIPRAZOLE], for which the “% Inhibition” value is reported as -4% and the Z score is given as 0.36.

As for `c1nc(NC[C@H]2CCCO2)ncc1CN1CCOC2(CCCC2)C1`, the “% Inhibition” value is on record as -22% and the Z score is 1.97.

Take `O=C(NC1CCCC1)C12CCCN1CCC2`: the “% Inhibition” value is on record as -1% and the Z score stood at 0.21.

On to `O=C(c1nc(=O)[nH][nH]1)N1C2CCC1c1ccccc12`, for which the “% Inhibition” value was -4% and the Z score is given as 0.66.

Consider `Cc1nc(CC(=O)N2C[C@@H]3CC[C@H]2CN(Cc2c(C)noc2C)C3)cs1`, for which the “% Inhibition” value is given as -4% and the Z score stood at 0.68.

In the case of `CC1CC(C)(C)CC1NCC1CCC(O)C1` (centres undefined), the “% Inhibition” value was -10% and the Z score is 1.28.

Turning to `O=C1NC(=O)C2(C(=O)N1)C(c1cccc(Br)c1)NC(=O)NC2c1cccc(Br)c1` (centres undefined), the “% Inhibition” value is listed as 4% and the Z score is -0.44.

As for `CCN1C(=O)N(CC(N)=O)C(=O)C12CCNCC2`, the “% Inhibition” value stood at 4% and the Z score is recorded as -0.49.

With `c1ccc(N2CCN(CC34CCC(CC3)N4)CC2)cc1`, the “% Inhibition” value is -5% and the Z score was 0.96.

Turning to `C[C@H]1CN(C)Cc2c1nc(N)c(C#N)c2-c1cccs1`, the “% Inhibition” value is -14% and the Z score was 1.66.

Regarding `C=C[C@H]1OCC[C@@H]1C(=O)N1CCC(c2n[nH]c(=O)o2)CC1`, the “% Inhibition” value is on record as -5% and the Z score came out at 0.68.

As to `Cc1cccc([C@H](C)NCC(=O)N2CCC3(CC2)OCCO3)c1C`, the “% Inhibition” value is -16% and the Z score turned out to be 1.57.

For the compound `COc1ccccc1OCC(=O)N1CC(N2CCC(OC)CC2)C1`, the “% Inhibition” value is reported as -3% and the Z score is given as 0.44.

On to `Cc1nnc(CNC(C)C(C)c2ccccc2)o1` (centres undefined), for which the “% Inhibition” value is -8% and the Z score turned out to be 0.96.

`CCN1CCC2CCC(C1)N2c1cc(C)nc(COC)n1` (centres undefined): the “% Inhibition” value was -11% and the Z score amounted to 0.99.

As for `CC1(C)C[C@@H](CNC(=O)c2cccc3oc(=O)[nH]c23)CCO1`, the “% Inhibition” value came to 4% and the Z score is -0.71.

As to `Cc1ccccc1C(=O)N(Cc1cccc(F)c1)c1ccc(CC(=O)N2CCN(C)CC2)cc1`, the “% Inhibition” value was -1% and the Z score is recorded as 0.17.

For the compound `Cc1ccc2oc(=O)n(C3CCN(C(=O)c4cccc(Cl)c4Cl)CC3)c2c1`, the “% Inhibition” value came to 18% and the Z score is -2.5.

As for `O=C(CN1C2CCC1c1ccccc12)Nc1ccc2c(c1)OCO2`, the “% Inhibition” value was -7% and the Z score stood at 1.07.

As to `C[C@H]1CCCCN1C(=O)CN1CCN(C(=O)Cc2ccon2)CC1`, the “% Inhibition” value is 1% and the Z score is listed as -0.15.

Turning to `CCC(CC)c1cc([C@H]2CN3CC[C@H]2C[C@@H]3CO)nc(-c2ccncc2)n1`, the “% Inhibition” value stood at 25% and the Z score is -2.22.

Take `CCN1CCN2c3cccc(Cl)c3CC3(C(=O)NC(=O)N(C(C)(C)C)C3=O)C2C1` (centres undefined): the “% Inhibition” value was -4% and the Z score is listed as 0.68.

For the compound `CC(=O)N1CCC(CN(C)C(=O)NC(C)Cc2ccc(C)cc2C)C1` (centres undefined), the “% Inhibition” value was -6% and the Z score is reported as 0.82.

As to `Cc1cccc([C@@H]2c3cccn3-c3ccccc3CN2C(=O)Nc2ccc(C)cc2Cl)c1`, the “% Inhibition” value is listed as -11% and the Z score is 1.39.

`COc1cccc([C@H]2CN(C(=O)CC3CCCC3)[C@@H]3C4CCN(CC4)[C@H]23)c1`: the “% Inhibition” value is -7% and the Z score is recorded as 0.82.

A word on the % Inhibition: it is the relative decrease from the control value, in per cent.
